Some of the results follow.

The subject of this assay is PfHDP1 homeodomain (GST-tagged). As to the kind of experiment: gcPBM binding intensity (ln(normalized median fluorescence intensity)); higher = stronger DNA binding. In outline: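 Alexa488 anti-GST antibody, scanned at 488 nm, detected GST-tagged P. falciparum DNA-binding domains that had been expressed in E. coli and incubated for 1 h on an Agilent 4 × 180k array. The array carried primer-extended double-stranded 36-bp intergenic genomic probes and negative controls. Binding intensity is the highest Masliner-normalised natural-log median intensity across replicate spots of either orientation of each probe.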
For the sequence “TTTTCTTTTTGTTCGTGTACACACATGAAATTTATA [XGTACX_site3301]”, the “gcPBM binding intensity (ln)” value worked out at 6.84.

Turning to “AAACGTACATAATACACACACATGTATACATATAAA [CACACA_site2048]”, the “gcPBM binding intensity (ln)” value was 6.97.

Take “GAAGTTAGTGTTGACTGTACATATATATGTATATAT [XGTACX_site7243]”: the “gcPBM binding intensity (ln)” value is 6.52.

For the sequence “AATCGAAATCGTGCACGGACACATGCAGTAGCCGAG [XGTACX_site6001]”, the “gcPBM binding intensity (ln)” value worked out at 10.2.

As for “TTCCCCCCCAGACACACACACACATACATACCACAT [CACACA_site2305]”, the “gcPBM binding intensity (ln)” value stood at 7.98.

Regarding “TATACCTATAAATACACACACATATATAAATAAATA [CACACA_site6730]”, the “gcPBM binding intensity (ln)” value turned out to be 6.88.

“ATATATATACACAATAGTACGTGTAATATTATTATT [XGTACX_site2151]”: the “gcPBM binding intensity (ln)” value is 7.2.

In the case of “TCTTTTTATGTTCTAGAGCATTTTATTATTTAACAT [CACACA_negctrl_site1699]”, the “gcPBM binding intensity (ln)” value stood at 7.34.

For the sequence ATACTATTTAAATGGGTGCTAAAAATAACAAAAATT, the “gcPBM binding intensity (ln)” value came to 6.86.

Consider ATATTTTTATATGAGGTGCATATAATGACAATTAAG, for which the “gcPBM binding intensity (ln)” value was 9.62.

As to “TACTATATATTATATAGTACATAAGATATACAACAT [XGTACX_site2929]”, the “gcPBM binding intensity (ln)” value worked out at 6.64.

In the case of “AAGAAAATTAACCCATGTACTTATGTAGATAGCAAG [XGTACX_site1049]”, the “gcPBM binding intensity (ln)” value amounted to 6.42.

With “CAAAAAAAATTATACACACACACACCCATATATATA [CACACA_site1044]”, the “gcPBM binding intensity (ln)” value was 7.05.

As for “CAATATTATAGATATACACACATAATGTGTAAAAAC [CACACA_site6631]”, the “gcPBM binding intensity (ln)” value stood at 6.92.

As for “TAAAACTTAATATAAACACACAAAAATTAATAAATA [CACACA_site4370]”, the “gcPBM binding intensity (ln)” value was 6.48.

With “ATATATATATATATTGCACACATATAAATATATATA [CACACA_site8167]”, the “gcPBM binding intensity (ln)” value is 10.9.

With “TTTTTGTTTTTTTTGTGTACTTATCAAATATATATA [XGTACX_site7273]”, the “gcPBM binding intensity (ln)” value was determined as 6.86.

With “GAAAAATTTAATTATTGTACGTTTCATCTATATTTA [XGTACX_site414]”, the “gcPBM binding intensity (ln)” value is 6.19.

With “TTTTTTTTTTAGAGTACACACTTTTTTACATTTATG [CACACA_site5990]”, the “gcPBM binding intensity (ln)” value came out at 6.42.

On to “ATTACAAATATAATATGTACTTAAATATAATTAAAA [XGTACX_site7038]”, for which the “gcPBM binding intensity (ln)” value is 6.22.

With “TCTTGATCTTATATATATCTACAATATTTTATACAT [TGCATGCA_negctrl_site569]”, the “gcPBM binding intensity (ln)” value amounted to 6.88.

On to “ATTACTAAAACAAAATGTACATATGATTTAAGAAAA [XGTACX_site5992]”, for which the “gcPBM binding intensity (ln)” value was 6.31.

“AAAAAAAAAAAGAAGGGTACATATTATATATAATAT [XGTACX_site6204]”: the “gcPBM binding intensity (ln)” value amounted to 6.42.

Regarding “TATATATAAACATAATGTACATATAATAAGTAATAT [XGTACX_site497]”, the “gcPBM binding intensity (ln)” value is 6.81.

As for “AGCCCAAAAAAGTAGACATGCAAAAACTTTACAACT [TGCATGCA_site550]”, the “gcPBM binding intensity (ln)” value came to 6.5.

For the sequence “TAGAGGAATATAATATGTACATAATATAATGTATAT [XGTACX_site2838]”, the “gcPBM binding intensity (ln)” value was determined as 6.6.

For “AGTGAAATTTTAGTCACACAGTTTTATCTTTAAGAA [CACACA_site5202]”, the “gcPBM binding intensity (ln)” value amounted to 5.86.

In the case of “TTATGTCTAATGAAATGTACATGAATAAATTAAAGT [XGTACX_site8138]”, the “gcPBM binding intensity (ln)” value stood at 6.96.

Consider “AAAAAAATAAATAAATGTACACATATATATATATAT [XGTACX_site4350]”, for which the “gcPBM binding intensity (ln)” value turned out to be 9.25.

For the sequence “ATCATTTATATTTTATGTACATATATAATTATATTT [XGTACX_site2129]”, the “gcPBM binding intensity (ln)” value is 6.91.

Take “AATTATATAAGCCACGCATGTGTGCATAAAAATACA [TGCATGCA_site114]”: the “gcPBM binding intensity (ln)” value stood at 10.9.

For the sequence “AATGAGAATTTTATTACACACTTTAATATATTTTCA [CACACA_site784]”, the “gcPBM binding intensity (ln)” value stood at 6.33.

With “AATTTTCAATAGTATACACACAATTCTATAAATATA [CACACA_site6650]”, the “gcPBM binding intensity (ln)” value turned out to be 6.38.

As for “CACGTGAAAATACAAGCATGCAAGCTTTTTTTTTCT [TGCATGCA_site642]”, the “gcPBM binding intensity (ln)” value was 6.06.

With “AATTTTTTTATAGCACGTACAAAAATACAAAATACA [XGTACX_site1569]”, the “gcPBM binding intensity (ln)” value is 6.59.

Consider “CTTAAAAAAATATATTGTACATATATATATACAACT [XGTACX_site1281]”, for which the “gcPBM binding intensity (ln)” value was determined as 6.49.

As for “TATATTCCCATATAACGTACATATGAGACACCAACT [XGTACX_site8099]”, the “gcPBM binding intensity (ln)” value was found to be 6.61.

For the sequence “GATCATTCTAAATATAAACACACATAAATATATACA [CACACA_site9108]”, the “gcPBM binding intensity (ln)” value came out at 6.67.

Take “ATAATATAATAATATTGTACATGGTCAAATATGAAA [XGTACX_site8390]”: the “gcPBM binding intensity (ln)” value was found to be 6.28.

In the case of “GTTTATATATTATAAAGTACATATGAATTTAATAAT [XGTACX_site3601]”, the “gcPBM binding intensity (ln)” value worked out at 6.2.

On to “ATTTCAAAATATAGCTGTACAAAAAATGTAGATATA [XGTACX_site5843]”, for which the “gcPBM binding intensity (ln)” value came out at 6.29.

Consider “AAAAAATAAATAAACATAAATAAATAAATAAATATA [XGTACX_negctrl_site340]”, for which the “gcPBM binding intensity (ln)” value came out at 6.27.

On to “AATTTTGTCCTATGTTGTACTATTTTGCTCTATTTT [XGTACX_site7139]”, for which the “gcPBM binding intensity (ln)” value was 7.39.

Consider “TAACTTCAAAAATCTTGTACATAAATATATAAAACA [XGTACX_site8574]”, for which the “gcPBM binding intensity (ln)” value came to 6.29.

The values above are taken from the supplement of paper PMC11417369.
